This is one part of the list. At the low end of the ranking, values are background and their order means little.
target: GST-SBP-SLBP (stem-loop binding protein) (UniProt Q14493); experiment: targeted RNA Bind-n-Seq; conditions: RBNS binding buffer: 25 mM Tris pH 7.5, 150 mM KCl, 3 mM MgCl2, 0.1% Tween, 0.5 mg/mL BSA, 1 mM DTT; 27 nM protein, 750 pM RNA pool; temperature not stated; high values mean tight binding;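 note: DESeq read counts versus GST-SBP nonspecific binding control pulldown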

Row | Sequence | binding signal (log2 fold change)
1 | GGUCACGUCUCAAUCAACUCUACUUCCAGGGAAAUCCCUGGUUUACUCAACAGCUCGCAGUCAAG | 0.109
2 | GGUCACGUCUCAAUCAACUCCCCAGAGGGGGGGAAAACCCCUUUACCCUCCGUAUCAACAGCUCGCAGUCAAG | -0.0324
3 | GGUCACGUCUCAAUCAACUCCACAGAGGGGGGGAAAACCCCUUUACCCUCCACAUCAACAGCUCGCAGUCAAG | -0.0216
4 | GGUCACGUCUCAAUCAACUCACUAGAGGGGGGGAAAACCCCUUUACCCUCAAUAUCAACAGCUCGCAGUCAAG | 0.176
5 | GGUCACGUCUCAAUCAACUCAAUUUCAGGAGUUUGCUCCUGUUUACUCAACAGCUCGCAGUCAAG | -0.055
6 | GGUCACGUCUCAAUCAACUCAUAAGAGGGGGGGAAAACCCCUUUGCCCUCACACUCAACAGCUCGCAGUCAAG | -0.253
7 | GGUCACGUCUCAAUCAACUCAACGCCAGGAGUUUUCUCCUGUAAUCUCAACAGCUCGCAGUCAAG | 0.04
8 | GGUCACGUCUCAAUCAACUCUUUCGAGGGGGGGAAAACCCCUUUACCCUCAUACUCAACAGCUCGCAGUCAAG | 0.524
9 | GGUCACGUCUCAAUCAACUCUUCUCCAGGAGUUUUCUCCUGUUAUCUCAACAGCUCGCAGUCAAG | 0.161
10 | GGUCACGUCUCAAUCAACUCAUGUCCAGGAGUUUGCUCCUGCUUUUUCAACAGCUCGCAGUCAAG | -0.141
11 | GGUCACGUCUCAAUCAACUCUUUCUCCAGGGAAAUCCCUGGUAAAUUCAACAGCUCGCAGUCAAG | -0.1
12 | GGUCACGUCUCAAUCAACUCUUCCUCCAGGGAAAUCCCUGGCUAAUUCAACAGCUCGCAGUCAAG | 0.11
13 | GGUCACGUCUCAAUCAACUCCUCAGAGGGGGGGAAAACCCCUUUGCCCUCCAUAUCAACAGCUCGCAGUCAAG | -0.29
14 | GGUCACGUCUCAAUCAACUCUUUUUCCAGGGAAAGCCCUGGCGUAUUCAACAGCUCGCAGUCAAG | -0.12
15 | GGUCACGUCUCAAUCAACUCUUUCUCCAGGGAAAACCCUGGUUAUUUCAACAGCUCGCAGUCAAG | -0.142
16 | GGUCACGUCUCAAUCAACUCAUCUCCAGGAGUUUUCUCCUGUAUUUUCAACAGCUCGCAGUCAAG | -0.177
17 | GGUCACGUCUCAAUCAACUCCCAAGAGGGGGGGAAAACCCCUUUGCCCUCACUAUCAACAGCUCGCAGUCAAG | -0.164
18 | GGUCACGUCUCAAUCAACUCCUUCGAGGGGGGGAAAACCCCUUUACCCUCACAUUCAACAGCUCGCAGUCAAG | -0.083
19 | GGUCACGUCUCAAUCAACUCUCAAGAGGGGGGGAAAACCCCUUUACCCUCCAUAUCAACAGCUCGCAGUCAAG | 0.253
20 | GGUCACGUCUCAAUCAACUCUUUUCCAGGAGUUUUCUCCUGUAAUUUCAACAGCUCGCAGUCAAG | 0.0451
21 | GGUCACGUCUCAAUCAACUCUAGUCCAGGAGUUUUCUCCUGCUUAUUCAACAGCUCGCAGUCAAG | 0.0928
22 | GGUCACGUCUCAAUCAACUCAUUUUCCAGGGAAAGCCCUGGUAAUCUCAACAGCUCGCAGUCAAG | -0.0129
23 | GGUCACGUCUCAAUCAACUCUAAAGAGGGGGGGAAAACCCCUUUACCCUCACCUUCAACAGCUCGCAGUCAAG | -0.214

Row | Sequence | binding signal (log2 fold change)
24 | GGUCACGUCUCAAUCAACUCAGUCUCCAGGGAAAGCCCUGGUUUAUUCAACAGCUCGCAGUCAAG | 0.0183
25 | GGUCACGUCUCAAUCAACUCUAAAGAGGGGGGGAAAACCCCUUUGCCCUCGAAAUCAACAGCUCGCAGUCAAG | 0.173
26 | GGUCACGUCUCAAUCAACUCUCAAGAGGGGGGGAAAACCCCUUUACCCUCGUAUUCAACAGCUCGCAGUCAAG | -0.0233
27 | GGUCACGUCUCAAUCAACUCUACUCCCAGGGAAAACCCUGGCUAACUCAACAGCUCGCAGUCAAG | 0.0348
28 | GGUCACGUCUCAAUCAACUCAUCUUCCAGGGAAAGCCCUGGUAAUCUCAACAGCUCGCAGUCAAG | 0.229
29 | GGUCACGUCUCAAUCAACUCAAUCUCAGGAGUUUGCUCCUGCUUAUUCAACAGCUCGCAGUCAAG | 0.0572
30 | GGUCACGUCUCAAUCAACUCCAACGAGGGGGGGAAAACCCCUUUACCCUCACAAUCAACAGCUCGCAGUCAAG | 0.01
31 | GGUCACGUCUCAAUCAACUCUUAGGAGGGGGGGAAAACCCCUUUACCCUCACAAUCAACAGCUCGCAGUCAAG | -0.194
32 | GGUCACGUCUCAAUCAACUCUAUUCCAGGAGUUUCCUCCUGUAAAUUCAACAGCUCGCAGUCAAG | 0.0329
33 | GGUCACGUCUCAAUCAACUCAUUCUCAGGAGUUUGCUCCUGUAAUUUCAACAGCUCGCAGUCAAG | 0.145
34 | GGUCACGUCUCAAUCAACUCUAUCUCCAGGGAAAACCCUGGCUAACUCAACAGCUCGCAGUCAAG | 0.369
35 | GGUCACGUCUCAAUCAACUCAUCGUCCAGGGAAAGCCCUGGUAUAUUCAACAGCUCGCAGUCAAG | 0.00836
36 | GGUCACGUCUCAAUCAACUCUUUUCCCAGGGAAAGCCCUGGUUAUUUCAACAGCUCGCAGUCAAG | -0.164
37 | GGUCACGUCUCAAUCAACUCUCUAGAGGGGGGGAAAACCCCUUUACCCUCACCGUCAACAGCUCGCAGUCAAG | -0.491
38 | GGUCACGUCUCAAUCAACUCUACUCCAGGAGUUUUCUCCUGUUUACUCAACAGCUCGCAGUCAAG | 0.0265
39 | GGUCACGUCUCAAUCAACUCAACAGAGGGGGGGAAAACCCCUUUGCCCUCCAAAUCAACAGCUCGCAGUCAAG | -0.228
40 | GGUCACGUCUCAAUCAACUCAACUCCAGGAGUUUUCUCCUGUAUACUCAACAGCUCGCAGUCAAG | -0.0496
41 | GGUCACGUCUCAAUCAACUCCCACGAGGGGGGGAAAACCCCUUUACCCUCUUUAUCAACAGCUCGCAGUCAAG | -0.0313
42 | GGUCACGUCUCAAUCAACUCUUACGAGGGGGGGAAAACCCCUUUACCCUCCACAUCAACAGCUCGCAGUCAAG | -0.213
43 | GGUCACGUCUCAAUCAACUCAUCUCCCAGGGAAACCCCUGGUAAACUCAACAGCUCGCAGUCAAG | -0.142
44 | GGUCACGUCUCAAUCAACUCUUCCUCCAGGGAAAACCCUGGCAAUUUCAACAGCUCGCAGUCAAG | -0.168
45 | GGUCACGUCUCAAUCAACUCCCAAGAGGGGGGGAAAACCCCUUUACCCUCCGUAUCAACAGCUCGCAGUCAAG | -0.0512
46 | GGUCACGUCUCAAUCAACUCUAUUCCAGGAGUUUUCUCCUGUUUUUUCAACAGCUCGCAGUCAAG | -0.172
